Here are results for one molecule from article PMC10323775.

The chains behind the UniProt entries cited, without tags or fusion partners.
UniProt P31750: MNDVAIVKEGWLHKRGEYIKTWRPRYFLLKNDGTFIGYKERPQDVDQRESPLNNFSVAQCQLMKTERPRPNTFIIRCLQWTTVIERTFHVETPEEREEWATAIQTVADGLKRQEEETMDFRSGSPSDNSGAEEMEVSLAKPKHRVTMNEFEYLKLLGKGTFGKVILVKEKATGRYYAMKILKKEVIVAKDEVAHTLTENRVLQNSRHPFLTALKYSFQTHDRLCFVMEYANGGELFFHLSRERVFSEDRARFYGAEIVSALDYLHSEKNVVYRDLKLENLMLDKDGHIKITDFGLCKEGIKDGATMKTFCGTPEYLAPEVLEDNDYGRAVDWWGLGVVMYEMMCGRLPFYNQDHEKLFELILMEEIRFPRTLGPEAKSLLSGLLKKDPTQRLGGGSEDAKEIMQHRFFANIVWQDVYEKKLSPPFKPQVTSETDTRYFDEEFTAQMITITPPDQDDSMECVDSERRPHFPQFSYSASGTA
UniProt Q60823: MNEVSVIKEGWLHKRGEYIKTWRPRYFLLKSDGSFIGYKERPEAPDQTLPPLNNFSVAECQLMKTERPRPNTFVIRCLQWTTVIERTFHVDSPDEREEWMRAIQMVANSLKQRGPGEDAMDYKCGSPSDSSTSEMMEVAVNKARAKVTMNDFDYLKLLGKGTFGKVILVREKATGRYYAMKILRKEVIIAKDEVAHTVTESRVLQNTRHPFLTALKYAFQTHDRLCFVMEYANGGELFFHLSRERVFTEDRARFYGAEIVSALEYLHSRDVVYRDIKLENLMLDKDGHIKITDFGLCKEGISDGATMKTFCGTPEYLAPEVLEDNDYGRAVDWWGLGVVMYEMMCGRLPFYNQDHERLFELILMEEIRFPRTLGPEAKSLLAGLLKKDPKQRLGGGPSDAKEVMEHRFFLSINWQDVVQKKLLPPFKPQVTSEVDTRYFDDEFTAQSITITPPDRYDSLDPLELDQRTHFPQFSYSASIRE
UniProt Q9JHG7: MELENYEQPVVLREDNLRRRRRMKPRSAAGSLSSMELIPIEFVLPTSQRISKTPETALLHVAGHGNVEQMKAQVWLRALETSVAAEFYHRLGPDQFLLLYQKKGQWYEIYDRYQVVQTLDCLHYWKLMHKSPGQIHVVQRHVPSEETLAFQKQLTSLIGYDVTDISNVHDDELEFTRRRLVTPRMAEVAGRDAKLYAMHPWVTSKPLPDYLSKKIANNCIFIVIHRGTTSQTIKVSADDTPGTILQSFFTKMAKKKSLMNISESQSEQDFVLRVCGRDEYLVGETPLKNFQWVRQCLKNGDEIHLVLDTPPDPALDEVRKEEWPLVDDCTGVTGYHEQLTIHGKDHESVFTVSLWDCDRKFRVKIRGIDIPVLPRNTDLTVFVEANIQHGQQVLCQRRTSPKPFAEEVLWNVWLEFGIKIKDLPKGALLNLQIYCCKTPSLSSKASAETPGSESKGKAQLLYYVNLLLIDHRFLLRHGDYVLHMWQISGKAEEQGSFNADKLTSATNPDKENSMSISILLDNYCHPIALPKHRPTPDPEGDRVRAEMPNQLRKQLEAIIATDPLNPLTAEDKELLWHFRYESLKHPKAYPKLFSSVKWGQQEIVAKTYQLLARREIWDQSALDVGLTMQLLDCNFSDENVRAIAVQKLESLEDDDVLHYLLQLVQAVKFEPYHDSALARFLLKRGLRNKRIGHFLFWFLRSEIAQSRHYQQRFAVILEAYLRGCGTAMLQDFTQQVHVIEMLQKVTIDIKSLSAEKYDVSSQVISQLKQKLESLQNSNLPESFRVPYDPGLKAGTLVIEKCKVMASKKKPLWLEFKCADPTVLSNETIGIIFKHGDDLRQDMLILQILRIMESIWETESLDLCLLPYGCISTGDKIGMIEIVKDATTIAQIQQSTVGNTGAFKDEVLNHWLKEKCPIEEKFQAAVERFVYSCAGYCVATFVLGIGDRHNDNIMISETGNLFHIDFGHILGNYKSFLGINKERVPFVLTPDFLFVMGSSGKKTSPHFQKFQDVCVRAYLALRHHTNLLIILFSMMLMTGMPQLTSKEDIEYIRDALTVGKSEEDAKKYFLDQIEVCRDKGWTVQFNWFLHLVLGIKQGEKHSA
UniProt A3KGF7: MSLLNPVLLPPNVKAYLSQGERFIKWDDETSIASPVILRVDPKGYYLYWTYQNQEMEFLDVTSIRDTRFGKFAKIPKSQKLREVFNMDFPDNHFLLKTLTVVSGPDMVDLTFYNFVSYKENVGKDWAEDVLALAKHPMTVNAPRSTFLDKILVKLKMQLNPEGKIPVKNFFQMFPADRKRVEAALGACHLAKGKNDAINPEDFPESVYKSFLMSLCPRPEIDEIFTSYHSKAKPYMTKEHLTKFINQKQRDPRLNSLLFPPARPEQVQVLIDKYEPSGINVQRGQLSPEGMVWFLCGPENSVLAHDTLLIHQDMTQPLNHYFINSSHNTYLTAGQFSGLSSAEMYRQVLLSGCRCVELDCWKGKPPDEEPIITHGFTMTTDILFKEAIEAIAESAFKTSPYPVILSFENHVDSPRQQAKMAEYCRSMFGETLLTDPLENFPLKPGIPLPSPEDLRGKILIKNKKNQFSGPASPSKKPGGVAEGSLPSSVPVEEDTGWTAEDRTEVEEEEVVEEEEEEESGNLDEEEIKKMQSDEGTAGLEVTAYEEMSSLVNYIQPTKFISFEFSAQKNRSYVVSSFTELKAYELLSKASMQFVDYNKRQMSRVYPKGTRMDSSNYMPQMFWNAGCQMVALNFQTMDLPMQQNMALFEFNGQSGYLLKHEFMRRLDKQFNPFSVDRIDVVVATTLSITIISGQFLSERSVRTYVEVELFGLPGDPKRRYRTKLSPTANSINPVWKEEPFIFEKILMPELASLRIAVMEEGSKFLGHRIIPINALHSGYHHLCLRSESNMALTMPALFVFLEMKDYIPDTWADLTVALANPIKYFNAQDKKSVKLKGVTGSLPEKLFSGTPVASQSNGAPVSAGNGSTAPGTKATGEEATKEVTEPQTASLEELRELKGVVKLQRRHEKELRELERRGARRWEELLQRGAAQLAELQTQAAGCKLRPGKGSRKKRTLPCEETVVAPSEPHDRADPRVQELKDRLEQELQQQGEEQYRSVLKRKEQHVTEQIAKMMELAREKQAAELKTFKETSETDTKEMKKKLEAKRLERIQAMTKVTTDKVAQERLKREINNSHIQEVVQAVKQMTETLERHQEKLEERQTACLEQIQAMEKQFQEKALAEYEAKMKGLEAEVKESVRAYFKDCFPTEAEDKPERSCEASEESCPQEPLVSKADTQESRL

These are yes or no findings as the source states them, for the method shown. Binding seen in cells or lysates may run through a third protein. Some entries that bind do so weakly or less than the wild type.

Targets include AKT1 (UniProt P31750); AKT2 (UniProt Q60823); PIK3Cγ (UniProt Q9JHG7); PLCβ2 (UniProt A3KGF7).
Common to all, as to assay: co-IP; tagged proteins overexpressed in HEK293T cells; lysis in IP buffer (50 mmol/L Tris, 150 mmol/L NaCl, 2 mmol/L EDTA, 1% NP-40); anti-FLAG M2 affinity gel, 4 °C overnight; three washes; immunoblot
The target of experiment [1] is T1, complement 5a receptor 1 (C5aR1) (UniProt P30993).
T1 sequence: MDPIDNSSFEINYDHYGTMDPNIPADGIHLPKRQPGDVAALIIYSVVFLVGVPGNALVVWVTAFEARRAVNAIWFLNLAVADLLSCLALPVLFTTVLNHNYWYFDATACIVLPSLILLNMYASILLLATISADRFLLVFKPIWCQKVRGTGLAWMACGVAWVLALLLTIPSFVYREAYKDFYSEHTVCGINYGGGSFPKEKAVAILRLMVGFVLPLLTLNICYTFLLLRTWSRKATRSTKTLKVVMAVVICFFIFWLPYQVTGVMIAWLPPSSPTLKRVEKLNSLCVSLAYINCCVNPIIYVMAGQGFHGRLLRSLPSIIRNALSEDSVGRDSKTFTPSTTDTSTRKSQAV

B1: guanine nucleotide-binding protein subunit alpha-12 (GNA12) (protein, UniProt P27600 1-379)
chain: MSGVVRTLSRCLLPAEAGARERRAGAARDAEREARRRSRDIDALLARERRAVRRLVKILLLGAGESGKSTFLKQMRIIHGREFDQKALLEFRDTIFDNILKGSRVLVDARDKLGIPWQHSENEKHGMFLMAFENKAGLPVEPATFQLYVPALSALWRDSGIREAFSRRSEFQLGESVKYFLDNLDRIGQLNYFPSKQDILLARKATKGIVEHDFVIKKIPFKMVDVGGQRSQRQKWFQCFDGITSILFMVSSSEYDQVLMEDRRTNRLVESMNIFETIVNNKLFFNVSIILFLNKMDLLVEKVKSVSIKKHFPDFKGDPHRLEDVQRYLVQCFDRKRRNRSKPLFHHFTTAIDTENIRFVFHAVKDTILQENLKDIMLQ
In the case of B1, the binding entry in the experiment with AKT1 is “no binding”; with AKT2, “no binding”; with PIK3Cγ, “no binding”; with PLCβ2 it was “binds”; in experiment [1] it was “binds”.
